The values that follow come from PubChem BioAssay AID1240 (Sanford-Burnham Center for Chemical Genomics, 2008).

Hit rate of the full screen: of about 50,000 compounds, about 800 (1.6%) showed an effect of 50% or more. The list shows a part of the results.

The assay addresses Bcl-2-like protein 10 (Homo sapiens) (UniProt Q9HD36). As to the kind of experiment: TR3 peptide-Bcl-B binding displacers, biochemical primary FP assay, phenotype converters (AID 1240).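 Note: 0% = Bcl-B with tracer peptide and DMSO and 100% = tracer peptide lacking Bcl-B.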 The following applies: GST-Bcl-B / FITC-TR3 peptide fluorescence polarization; stronger effect = higher value; compound at 3.75 mg/L.
Sequence of UniProt Q9HD36 (Q9HD36 whole entry, looked up): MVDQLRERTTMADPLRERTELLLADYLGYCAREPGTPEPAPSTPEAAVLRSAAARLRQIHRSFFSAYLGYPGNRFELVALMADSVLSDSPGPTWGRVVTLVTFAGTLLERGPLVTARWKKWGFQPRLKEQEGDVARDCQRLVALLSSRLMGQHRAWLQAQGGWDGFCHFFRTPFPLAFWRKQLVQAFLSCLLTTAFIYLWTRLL
In the case of `CCn1c2ccccc2c2cc(/C=C(\C#N)C(N)=O)ccc21`, the displacement is -7.4%. For `O=C(Cn1c(NCCO)nc2ccccc21)c1cccc2ccccc12`, the displacement is -12.2%.

For the molecule `CSc1ccc(/C=N\NC(=O)C2COc3cc4ccccc4cc3O2)cc1` (stereo unspecified), the displacement is -11.4%.

As to `COc1ccc(CSc2nc3ccccc3n2C)cc1F`, the displacement is -9.9%.

With `O=C1C2C3C=CC(C3)C2C(=O)N1/N=C/c1cccc(I)c1` (stereo unspecified), the displacement was determined as 10.3%.

In the case of `Cc1ccc(OCCCCn2ccnc2)cc1C`, the displacement was 9%. Take `O=c1[nH]c(Nc2nc3ccccc3o2)nc2ccccc12`: the displacement was -3.4%.

As for `CCOC(=O)c1c2c(n(-c3ccccc3)c1C)C=C(Br)C(=O)C2=O`, the displacement was 7.3%.

On to `CNC(=O)OCc1ccc(-c2ccc(Cl)cc2)o1`, for which the displacement is -4.5%.

In the case of `COc1ccc(OC)c(NCC(O)Cn2c3ccccc3c3ccccc32)c1` (stereo unspecified), the displacement was -2.3%. `C=CCn1c(=S)[nH]c2sc3c(c2c1=O)CCC(C(C)(C)C)C3` (stereo unspecified): the displacement is -11.8%.

Regarding `O=C(Nc1ccc(N2CCOCC2)cc1)c1ccc(-c2ccccc2[N+](=O)[O-])o1`, the displacement was -0.4%. In the case of `CCC(C)C(=O)N1c2cc(C)ccc2-c2c(ssc2=S)C1(C)C` (stereo unspecified), the displacement is -2.7%. Then `CCOC(=O)c1c(C)n(CC(O)CNC(C)C)c2ccc(OC)cc12` (stereo unspecified), with -7.6%; and `COC(=O)C(NC(=O)C12CC3CC(CC(C3)C1)C2)C(C)C` (stereo unspecified), with 13%. With `COc1ccc(Cl)cc1NC(=O)c1ccncc1`, the displacement was 1.1%. Then `COc1cc(NC(=O)Cc2ccc(Cl)cc2)c(OC)cc1Cl`, with 14.5%; and `O=C1N=c2ccccc2=C1c1sc(=S)n(-c2ccc(C(=O)O)cc2)c1O`, with 2%; and `O=C(NC1=Nc2cccc3cccc1c23)c1cccc(C(F)(F)F)c1`, with 62.1%. The same measure for `O=C(Nc1ccc(Cl)cc1)NC1CCCCCCC1`: -7.2%; for `O=c1c(Cl)c(Cl)cnn1Cc1c(Cl)ccc(Cl)c1Cl`: 8.3%. Consider `O=C1N2CN(C(c3ccccc3)c3ccccc3)CN=C2SC1(CO)CO`, for which the displacement turned out to be 3%. Take `Cc1cccc(NC(=O)/C(=C/c2cccc([N+](=O)[O-])c2)NC(=O)c2cccs2)c1`: the displacement was -1.8%. The same measure for `CCc1cccc(C)c1NC(=O)CCC(=O)O`: -6.6%; for `Cc1cc(/C=N\Nc2ccc([N+](=O)[O-])cn2)c(C)n1-c1ccccc1F`: 10.1%; for `O=C(NC(c1ccccc1)c1ccccc1)c1ccncc1`: 2%. `COc1cccc(C2NC(=O)NC(C)=C2C(=O)OCCOC(C)C)c1` (stereo unspecified): the displacement worked out at 3.3%. Turning to `O=C(c1ccc(S(=O)(=O)N2CCCCC2)cc1)N1CCN(Cc2ccc3c(c2)OCO3)CC1`, the displacement was -7.9%.

Take `O=C(NCCC(c1ccccc1)c1ccccc1)C1CCCCC1`: the displacement turned out to be 0.6%. Then `Cc1cc(Cl)ccc1OC(C)C(=O)NCC1CCCO1` (stereo unspecified), with 1.6%; and `COCCNC(=O)COc1ccc(Cl)cc1Br`, with -9.3%. Regarding `O=C(Nc1ccccc1O)c1ccc(Oc2ccc(C(=O)Nc3ccccc3O)cc2)cc1`, the displacement is -3%. With `CSc1ccc(/C=C2/SC(=O)N(CN3CCOCC3)C2=O)cc1`, the displacement is 2.3%. Then `Clc1ccc(-c2noc(CCc3ccccc3)n2)cc1`, with 13.2%; and `Cc1ccc(N(Cc2ccco2)S(=O)(=O)c2ccc([N+](=O)[O-])cc2)cc1`, with -4.5%; and `COc1cccc(C(=O)N2c3ccccc3C(N(C(=O)C(F)(F)F)c3ccccc3)CC2C)c1` (stereo unspecified), with 6.9%. Take `O=C(Nc1sc2c(c1C(=O)Nc1ccccn1)CCCCC2)c1ccccc1F`: the displacement is -3%. The same measure for `CCOc1ccc(-c2cc(C(=O)N3CCN(Cc4ccccc4)CC3)c3ccccc3n2)cc1`: 2.8%; for `O=C1OC(c2ccc(Oc3ccccc3)cc2)=C/C1=C/c1ccco1`: 29.1%; for `O=C1C=CC(=NOC(=O)c2ccccc2Br)C=C1`: 11.3%. In the case of `CCCCC/C(=N\NC(=O)c1cccnc1)c1ccccc1`, the displacement came out at 16.4%.

`CCOC(=O)c1sc2nc(C)ccc2c1N`: the displacement was -7.9%. With `O=C1CC(Sc2ccccc2)C(=O)N1c1ccc(Cc2ccc(N3C(=O)CC(Sc4ccccc4)C3=O)cc2)cc1` (stereo unspecified), the displacement was -0.3%.

In the case of `Cc1ccc(NC2CC(=O)N(c3cccc(C(F)(F)F)c3)C2=O)cc1` (stereo unspecified), the displacement was -3.8%. Then `COc1ccccc1CNC(=O)C/C(C)=N/NC(=O)C(=O)NC(C)C`, with -14.6%; and `O=C(Nc1nc(-c2ccccc2)cs1)c1ccncc1`, with -4.8%; and `O=C1NC(=O)N(c2cccc(Br)c2)C(=O)/C1=C/c1ccc(O)c(Cl)c1`, with 10.7%. In the case of `CCOC(=O)c1sc(NC(=O)Nc2cccc(Cl)c2)c(C(N)=O)c1C`, the displacement is -1.3%. As to `CS(=O)(=O)N(CC(=O)O)c1cc(Cl)cc(Cl)c1`, the displacement was found to be 12.1%. In the case of `C=CCn1c(CCCO)nc2ccccc21`, the displacement is 3.1%. With `O=C1N=C(N2CCCCC2)CN1c1ccccc1`, the displacement was -6.7%. For the molecule `COc1cccc(NC(=O)c2sc3cc(C)ccc3c2Cl)c1`, the displacement was found to be 9%. As to `CC(C)c1ccc(C(=O)Nc2cc(Cl)cc(Cl)c2)cc1`, the displacement is 13.9%. For the molecule `O=C(CSc1nnnn1-c1ccccc1)NN1C(=O)c2ccccc2C1=O`, the displacement was -17.5%. `CN(CCCC(=O)O)S(=O)(=O)c1ccc2c(c1)C(=O)c1cc(S(=O)(=O)N(C)CCCC(=O)O)ccc1-2`: the displacement is -4.1%. Consider `CCN1C(=O)/C(=C\c2ccc(-c3ccc(C(=O)OC)cc3)o2)SC1=S`, for which the displacement turned out to be 12.9%.

For `COc1ccc(NC(=O)CSc2ccncc2)c([N+](=O)[O-])c1`, the displacement turned out to be 11.4%. For the molecule `COc1ccc(C2NCCc3c2[nH]c2ccccc32)cc1` (stereo unspecified), the displacement was found to be 0.9%. As for `O=C(/C(=C/c1ccccc1[N+](=O)[O-])c1nc2ccccc2[nH]1)c1ccccc1`, the displacement stood at 11.4%.

On to `O=C(Cc1ccc([N+](=O)[O-])cc1)N/N=C/c1ccc(OC/C=C/Cl)cc1`, for which the displacement was -7.4%.

Take `CCOC(=O)C1=C(C)N=c2s/c(=C\c3ccc(F)cc3)c(=O)n2C1c1cccs1` (stereo unspecified): the displacement amounted to 12.7%. Consider `Cc1csc(NC(=O)c2cccnc2)n1`, for which the displacement is 17.3%. As to `O=C(C1c2ccccc2Oc2ccccc21)N1CCN(c2cccc(Cl)c2)CC1`, the displacement is -4%.

For the molecule `C(=C\c1ccccc1)/CSc1nnc(-c2ccncc2)n1-c1ccccc1`, the displacement is -17.2%. `COc1ccc(NC(=O)c2cccc(N3C(=O)c4ccc(C(=O)Nc5ccc(OC)cc5)cc4C3=O)c2)cc1`: the displacement was -10.8%. `O=C(Nc1c(Cl)cccc1Cl)c1ccc(Cl)c(Cl)c1`: the displacement was -5.7%. Consider `CN(C)c1ccc(/C=C2\N=C(c3ccc4c(c3)OCO4)OC2=O)cc1`, for which the displacement stood at 1.8%. In the case of `COC(=O)C1C(c2ccccc2)N(c2ccccc2)OC1(C)O` (stereo unspecified), the displacement came out at 7.7%.

With `CC(=C\c1ccccc1)/C=C1/SC(=O)N(c2ccc(Cl)cc2)C1=O`, the displacement stood at 2.3%.

With `Cc1cc(C(F)(F)F)nn1CC(=O)Nc1ccc(OC(F)(F)F)cc1`, the displacement is -1.9%.

On to `Cc1ccc(/C=C2\C(=O)NC(=O)N(c3ccc(Cl)cc3)C2=O)cc1[N+](=O)[O-]`, for which the displacement is -2.2%.
